This experiment has as its target T1, wild type human MIC-1 (human, UniProt Q99988 197-308).
T1 construct: also called wtMIC-1; hMIC-1
T1 sequence: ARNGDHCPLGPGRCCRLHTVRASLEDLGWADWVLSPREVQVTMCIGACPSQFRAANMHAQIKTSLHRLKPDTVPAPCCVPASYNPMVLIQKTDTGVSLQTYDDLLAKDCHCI
In words: SPR, Biacore 4000; hRet(ECR)-Fc immobilised through Fc. Here is the method: hRet and complex of hGFRAL and MIC-1 interactions were assessed by SPR-based binding assay. A Biacore® 4000 (GE Healthcare, Piscataway, N.J., USA) instrument was used. The assays were performed at 25° C. at flow rates of 30 μL/minute in 1× HBS-P running buffer (BR-1006-71, GE Healthcare, Piscataway, N.J., USA). hRet(ECR)-Fc was immobilized through Fc as ligand on the chip. VISTA-Fc was immobilized as negative control ligand. The complex of MIC-1 and hGFRAL was prepared by pre-incubating wtMIC-1 with hGFRAL(ECR)-His. wtMIC-1, hGFRAL(ECR)-His, complex of wtMIC-1 and Ctrl-His, and complex of wtMIC-1 and hGFRAL(ECR)-His at various concentration were run as flow-through analyte.
Thus, it can be concluded that that hRet binds to hGFRAL in the presence of MIC-1; and Ret, MIC-1 and GFRAL forms a ternary complex.

B1: hRET(ECR)-hIgG1.1_Fc (Fc fusion)
chain: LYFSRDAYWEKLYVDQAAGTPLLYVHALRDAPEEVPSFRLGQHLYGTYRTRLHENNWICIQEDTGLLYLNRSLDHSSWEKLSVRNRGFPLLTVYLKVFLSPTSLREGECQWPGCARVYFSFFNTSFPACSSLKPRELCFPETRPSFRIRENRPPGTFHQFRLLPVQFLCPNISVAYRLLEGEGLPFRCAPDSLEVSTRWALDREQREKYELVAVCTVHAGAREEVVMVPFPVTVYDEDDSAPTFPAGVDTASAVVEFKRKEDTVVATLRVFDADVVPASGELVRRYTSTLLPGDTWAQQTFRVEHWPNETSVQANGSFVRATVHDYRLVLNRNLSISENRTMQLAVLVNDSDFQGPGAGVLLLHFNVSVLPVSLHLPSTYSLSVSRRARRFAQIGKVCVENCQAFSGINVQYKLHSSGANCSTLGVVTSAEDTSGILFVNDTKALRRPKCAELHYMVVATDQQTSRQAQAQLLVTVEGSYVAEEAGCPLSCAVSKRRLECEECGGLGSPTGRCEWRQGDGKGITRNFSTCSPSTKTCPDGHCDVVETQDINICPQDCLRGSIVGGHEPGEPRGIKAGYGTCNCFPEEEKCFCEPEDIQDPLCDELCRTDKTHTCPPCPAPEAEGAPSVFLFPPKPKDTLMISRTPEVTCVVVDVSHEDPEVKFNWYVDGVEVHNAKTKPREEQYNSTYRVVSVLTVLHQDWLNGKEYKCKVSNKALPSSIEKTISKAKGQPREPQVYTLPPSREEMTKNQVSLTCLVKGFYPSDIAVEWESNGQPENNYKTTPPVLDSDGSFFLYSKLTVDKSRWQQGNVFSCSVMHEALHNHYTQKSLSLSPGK
notes: also called hRET(ECR)-Fc; hRet(ECR)-Fc
On to B1, for which the binding result was “no binding (tested: 1000 nM)”.

The record behind these values is patent publication US20190025332A1 (Novo Nordisk, published 2019).
